Reference: the RNAGym collection of RNA variant scans (doi:10.7554/elife.90254)
The source gives no read counts; variants with many changes may rest on few reads.

B1: OR4K15 (parent)
chain: GUUAACGGUCAUAGGCCAUGGAAACUAGGAGCACCAUUUCGCUGCCAGUGAAGAAAUGAACAAAGAAAAUCUGGGCCAGGCAGGCAUCAAAAGAAAUAGUCUUGCGCUCAACCAGAAAGUCUGUAAUCAUUUUAAGGGUA

Variants of: B1
Experiment: self-cleavage, relative activity (ratio to wild type); higher = more cleavage; in vitro, sequencing; the parent is a self-cleaving ribozyme

Row | Variant | self-cleavage
1 | A56C A82G A89C A90G | 0.36
2 | U2C A78U A117G | 0.28
3 | U49A A54U A59G A69U A98G U127C | 0.49
4 | A90C A92U U102C A118G | 2.2
5 | A18G A68G U103A | 0.66
6 | C6U U130C G136U | 1.13
7 | U2C A5G A59G A67G G79A U103C C109G | 0.05
8 | A18U A59G A96G | 1.1
9 | C6U A110G U131G | 0.16
10 | G8A A64G A111G | 0.11
11 | A52G U103C U108C A111G A117G | 0
12 | A24G A36C U108C | 0.05
13 | A56G A59G U122C U132A | 1.67
14 | A59U U103C A117G | 1.58
15 | U26G A27G A64U U72A | 0.27
16 | A47G A110U A111G A114G | 0.01
17 | A82U U87A A135U | 0.12
18 | U9C A89G U130C | 1.64
19 | A5U A66G U102C | 1.56
20 | U38C A66G A68U A90G U100A | 0.41
21 | A5G U12C G41A A60G | 0.98
22 | U37C A52U A86C U100C A111U | 0.14
23 | A52G A62G A116G | 0.66
24 | G20A A69G C85G | 1.03

Row | Variant | self-cleavage
25 | A54U A91G A111G U127G | 0.01
26 | A33U A82G U139C | 0.36
27 | G7A A60G A94G U133C | 1.02
28 | C10U A63G U124A | 0.51
29 | A11G G31A A116U | 0.43
30 | U19C U49C A60G U100C | 2.33
31 | A47G U108C U132C A135G | 0
32 | A13U A52G A63G U97C | 1.22
33 | C42A A63G A95G A126G | 1.28
34 | A24U A60G A94G | 1.59
35 | U9A U43C A63U | 1.48
36 | U49C U70C A140G | 0.92
37 | A47G U103C U127C | 0.26
38 | A22G A54U U103C | 1.1
39 | C35U A63G A67G A92G A96C A140U | 1.92
40 | A90G A114G A117G | 0.27
41 | A52U A64G U124C | 0.98
42 | A60U A62G U70C A94G A117G | 1.78
43 | A94G U102C U131C | 2.07
44 | A33G A60G U127C | 0.24
45 | A23G U26C G80A | 0.07
46 | U2A A23G A51G A116G | 0.34
47 | A33G A59U A125G G137A | 0
48 | A30G U38C U39A A67C A94G | 1.1

Row | Variant | self-cleavage
49 | U2C A110U U132C | 0.82
50 | A18G A60G U102A A114G | 0.45
51 | A47G A56G G58A A125G | 0
52 | A66G A90G A91G | 1.31
53 | A22G A52C A67U A96G U124C U130C | 1.45
54 | A23G G31A A111G | 0.02
55 | A33G A51G A60G A91G | 0.41
56 | A59G A78G U139C | 0.36
57 | A36G A54G A67G | 1.13
58 | A54G A68G U124C | 1.08
59 | A30G U38C A117G | 0.86
60 | U19G U37C U57C | 1.02
61 | U39C A91G U122A | 0.79
62 | A5U A30G G83A A125G U132C | 0.55
63 | A23U A47G A126G U130C | 0.61
64 | A4G A30U U103C A110G U130A | 0.07
65 | A4G A52G A67G U108A | 0.15
66 | A11C U12A A33G A69G A89G | 1.08
67 | U2C U19A A52G G136A | 1.24
68 | G31U U43A U49G G65U A67G U103C | 1.1
69 | C6U U49A U127A | 1.81
70 | A68G A94G U132C | 1.02
71 | A55G A114G A117U | 0.22
72 | A24G U43A A54G | 1.85

Row | Variant | self-cleavage
73 | A23G G58A A59C A134G | 0.54
74 | A18G A62U A111U | 0.27
75 | A11G A78U U133A | 0.2
76 | A55G A67G U108C | 0.01
77 | A52G A68G U133C | 1.13
78 | U3C U9C U87C | 1.04
79 | U9C A22G U38C | 0.39
80 | G75A A98G U108C | 0.01
81 | A36G A52G A54G U103C G106A U133C | 0.01
82 | C16U U43C A89U U100C | 1.75
83 | A98G U108C U131C | 0.01
84 | A4G U19C U39C A114U | 0.16
85 | C10A U26G A33G U43A A68G | 0.24
86 | U26C G58U A96G U103C A125G | 0.14
87 | A33G A52G A64G U87C G106A | 0.02
88 | A47G A86G U120C | 0.45
89 | A63G A78G A95G A116G | 0.14
90 | A52G U72A A78U | 0.12
91 | A22G U70C C85U A98G A118G | 0.21
92 | A23U A82G A126G | 0.43
93 | A68G C85U A95C | 1.02
94 | U122G U124C A129G | 1.57
95 | A27G U43C A54G A60G A82U | 0.13
96 | G15A A23G A51G U131A | 1.64

Row | Variant | self-cleavage
97 | A59U A67G U97C | 1.28
98 | U26C A78G C109U A140G | 0.1
99 | U12C A117G A135U | 0.81
100 | A24G C85U U108C | 0.05
101 | A54U A60G A69G A78U | 0.27
102 | A27G A91G A110U | 0.67
103 | A91G U108A U122C G123U A126G A129G | 0
104 | A47U A51G A95G | 1.69
105 | A55G A60G A90U A94G | 1.05
106 | A5G U72C A111U | 0.05
107 | U49C A69G A86G | 1.02
108 | A23G A56U U102A | 0.27
109 | U3A A18G A68G | 1.57
110 | G1A U2C A89U | 1.52
111 | U38C G74C A91G | 0.14
112 | U37C A89G U120C | 0.57
113 | A11G A36U A69G | 0.51
114 | U12C A30G U131C A140G | 1.27
115 | A22G A89G A98G U103C A116G A125U | 0.03
116 | A51U A59U A91G U97A A117U | 1.03
117 | A24G A30G A86G A98U | 0.9
118 | G7U U87A A129G U131C | 1.01
119 | A91C A96G A114G | 0.64
120 | U37C A56G A89U U108C A116G | 0

Row | Variant | self-cleavage
121 | U9C A27G G29U A96G A118G | 0.5
122 | A51G U102A U103C | 0.08
123 | C32A A62G U100C U122A | 2.98
124 | A33G A60G A92G U108C A140G | 0.01
125 | U37C U120C A140G | 0.91
126 | A13U A56G A116G U122C U124A A125G | 0.22
127 | U43G U49C U103C U131C | 0.77
128 | A59G A60U U100C C113U U122C | 0.03
129 | U2C A55U A56C A126G | 1.18
130 | A54U A67G U127C | 0.15
131 | A67U A92G A129G U131C | 2.53
132 | A5G U37A U38A U124C | 1.02
133 | A62C U102C A135G | 2.44
134 | U19C A55G A64G A91G U102C U108C U127C | 0
135 | C16G A47G A55G | 0.95
136 | G20A U37C A111G | 0.02
137 | A22G A94G U108C | 0.05
138 | U2C U19C G115A | 0
139 | C25A A52G U102C A126G A134G | 1.7
140 | A23G A54G A67G | 1.87
141 | A78G U122A U131C | 0.24
142 | A51G U57C A90G U102A C112U | 0
143 | A18U A54G A55G | 0.45
144 | A5C U38C A56G A69G U87C U127C | 0.45

Row | Variant | self-cleavage
145 | U12C A66G A94G | 0.93
146 | A63U U72C U102C A114G | 2.22
147 | A22G A62G A90U U124C C128A | 1.1
148 | U9C G28U A114G | 0.19
149 | A18C A66G U100C | 1.7
150 | U38C A67G U131C | 1.23
151 | A30U A33U U124C | 1.31
152 | A68G A111G A129G U132C G137A | 0.03
153 | C77U A92U A96U A116G A117U U133C | 0.35
154 | G8A U100C U127C | 2.37
155 | A68G A82G A129U | 0.12
156 | U39C A110G U131C | 0.16
157 | U3G A68G A78G | 0.27
158 | U2C U38C A95U | 1.02
159 | A27U A59G U100C U132C | 1.65
160 | A18U A78G A94G C112U | 0.03
161 | A67U A68C U133C | 0.78
162 | U3C U37C A68G | 0.66
163 | U38C U57C A116G A134U | 0.65
164 | A23U A111G U127C | 0.03
165 | U3C U70A G137A | 1.76
166 | A11G A52U A86G | 1.15
167 | A30G C35U A55G U103A A129G | 0.09
